# Screen size: about 46,000 compounds; about 60 (0.1%) were called active. About 3% were inconclusive and are not listed. Calls follow the shape of the dose curve; as a rule, active = well fitted inhibition curve with a large enough effect; inconclusive = small, poorly fitted or top-dose-only effect; inactive = no such curve, though single readings can be large or run the other way. The list shows a part of the results.
# Assay: Primary qHTS assay for Inhibitors of ovarian cancer metastasis using an organotypic tumor microenvironment (TME) model. Also: nearly all actives have a fitted effect of over 65% in size.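 As to activity change, negative = inhibition: plate controls were DMSO wells for no effect and tomatine positive control wells for full effect.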
# Settings: SKOV3ip1-GFP adhesion/invasion on 3D omental model, fluorescence; series mostly up to 45.8 µM; activity change, negative = inhibition: at the top concentration
# In short: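 qHTS, 4-pt dose (0.36-46 umol/L); SKOV3ip1-GFP, 1,200 cells/well, no FBS; primary omental fibroblast/mesothelial co-culture 48 h pre-grown; 2 h RT + 16 h 37 C; PBS wash, 4% PFA; GFP count 488/509 nm.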
Compound,outcome,"activity change, negative = inhibition"
Cc1ccc(Cn2c(=O)c3c(nc4n3CCN4c3cc(C)cc(C)c3)n(C)c2=O)cc1,inactive,
CC1=C(C(=O)Nc2ccccc2)C(c2ccc(C(=O)O)cc2)n2nc(SCC(=O)c3ccc(C)cc3)nc2N1 (configuration not stated),inactive,
CC(C)CCn1c(SCc2ccc(F)cc2Cl)nc2ccsc2c1=O,,inactive: -3.66%
COc1ccc(-c2c(C)nn3c(N4CCC(C(=O)NCCC(C)C)CC4)cc(C)nc23)cc1OC,,inactive: 94.5%
Cc1ccc(-n2ncc3c(NNC(=O)c4ccccc4C)ncnc32)cc1,,inactive: -26.9%
CC(C)c1ccc(C2c3c(-c4ccccc4O)n[nH]c3C(=O)N2CCc2ccccc2)cc1 (configuration not stated),,inactive: -28.5%
CCCN1CCN(CC2=C(C(=O)OCC)C(c3ccc(Cl)cc3)NC(=O)N2)CC1 (configuration not stated),inactive,
COc1ccc(Cl)cc1NC(=O)CCCn1c(=O)c2cccn2c2cccnc21,,inactive: 6.49%
COc1ccc(CNC(=O)Cc2c(C)c3c(cc(C)c4c(C)coc43)oc2=O)cc1,,inactive: -0.0135%
COCCCNC(=O)c1ccc(NC(=O)N2CCCCc3ccccc32)cc1,inactive,
COc1ccc(-c2nc(CCNC(=O)c3cc(OC)c(OC)c(OC)c3)cs2)cc1,inactive,
CCC(C)n1c(=N)c(S(=O)(=O)c2ccc(C)cc2)cc2c(=O)n3cc(C)ccc3nc21 (configuration not stated),inactive,
C#C[C@]1(O)CC[C@@H]2[C@@H]3CCC4=CC(=O)CC[C@@H]4[C@H]3CC[C@@]21CC,,inactive: -2.85%
COC(=O)c1c(NC(=O)c2ccc(S(=O)(=O)N3CCCCC3C)cc2)sc2c1CCN(C(C)C)C2 (configuration not stated),,inactive: -21.6%
CCOC(=O)c1ccccc1NC(=O)N(Cc1ccc(C)cc1)Cc1cccn1-c1nnc(N2CCCC2=O)s1,,inactive: -6.22%
CCOC(=O)N1CCc2c(sc(NCc3ccc(OC)c(Br)c3)c2C(=O)Nc2cc(OC)ccc2OC)C1,inactive,
Cc1ccc(CNC(=O)c2c(-c3ccccc3F)noc2C)o1,,inactive: 4.08%
COc1cccc(NC(=O)Cn2c(=O)n(CCCC(=O)NCc3ccc4c(c3)OCO4)c(=O)c3ccccc32)c1,,inactive: -0.353%
Cc1noc(NS(=O)(=O)c2ccc(NC(=O)c3ccc(Br)cc3)cc2)c1C,,inactive: 3.18%
COC(=O)c1nnn(CC(=O)NC(=O)Nc2ccccc2F)c1C(=O)OC,,inactive: 16.4%
Cc1c(Cl)cccc1NC(=O)c1ccc2nc(C(C)C)oc2c1,,inactive: 0.565%
CC(=O)Nc1cc(-c2ccccc2)nn1Cc1cccc(Cl)c1,,inactive: 2.82%
Cc1cccc(NC(=O)NCCOCCn2c(=O)oc3ccccc32)c1C,,inactive: 4.1%
O=C(CSc1nc2ccccc2nc1Cc1ccccc1)N1CCN(c2ccccc2)CC1,inactive,

Compound,outcome,"activity change, negative = inhibition"
CC(C)Oc1ccc(C(=O)Nc2ccc(-c3nc4ccccc4s3)cc2)cc1,,inactive: 0.887%
CC1Cc2cc(S(=O)(=O)CCC(=O)Nc3ccc(Cl)cc3F)ccc2N1C(=O)C1CC1 (configuration not stated),,inactive: -0.621%
COc1ccc(CCC(=O)NCc2nc3cccnc3n2Cc2ccccc2)cc1,,inactive: -0.939%
CCOc1ccc(CCNC(=O)CCn2c(=O)c3cccn3c3cccnc32)cc1,,inactive: 2.47%
Cc1ccc(Cl)cc1NC(=O)CCCN1C(=O)CCn2nc(-c3cn(C)c4ccccc34)cc21,,inactive: -0.658%
COc1ccc(CCNC(=O)CCc2c(C)c3cc4c(C)coc4cc3oc2=O)cc1,inactive,
COc1ccccc1C(=O)Nc1cc(-c2ccc(C)cc2)no1,,inactive: 0.703%
CN(c1ccccc1)c1ncnc2c1cnn2C,inactive,
CCC(=O)Nc1ccccc1-c1nc2ccccc2n(C(C)C(=O)Nc2ccc(OC)cc2)c1=O (configuration not stated),inactive,
O=C(O)c1ccc(N2C(=O)c3[nH]nc(-c4ccccc4)c3C2c2cccc(F)c2)cc1 (configuration not stated),,inactive: 1.38%
COc1ccc(N2CCN(C(=O)c3cc4cc5ccc(Cl)cc5nc4o3)CC2)cc1,,inactive: 4.35%
COc1ccc(C)cc1S(=O)(=O)NCC(c1ccc(N(C)C)cc1)N1CCc2ccccc21 (configuration not stated),,inactive: -28.6%
Cc1ccc2c(c1)C(=O)OC(C(=O)Nc1ncc(Cc3ccccc3)s1)C2 (configuration not stated),inactive,
CCc1ccc(C2C(C(=O)Nc3ccc(Cl)cc3)=C(C)Nc3ncnn32)cc1 (configuration not stated),,inactive: -0.734%
COc1cccc(-c2nc3c(c(C)nn3-c3ccccc3)c3cc(OC)c(OC)cc23)c1,,inactive: -7.2%
CCNc1nc(Oc2ccc(=O)n(-c3ccccc3)n2)nc(N(C)C)n1,,inactive: -2.39%
COc1cccc(C2C(=O)N(C3CCCCC3)CC(=O)N2Cc2ccc(Cl)cc2)c1 (configuration not stated),,inactive: 4.27%
Cc1cc(NC(=O)N2CCC(CN3CCOCC3)CC2)ccc1Br,,inactive: -14.6%
Cc1ccc(NC(=O)Cn2c(=O)oc3cc(S(=O)(=O)N4CCC(C)CC4)ccc32)cc1Cl,,inactive: -0.104%
Cc1cccc(C(=O)N(Cc2ccco2)Cc2ccccc2F)c1,inactive,
CC1CCCCN1C(=O)CSc1n[nH]c(-c2ccccc2)n1 (configuration not stated),,inactive: -7.09%
CC(=O)c1cccc(-n2c(=O)c3c4c(sc3n(CC(=O)c3ccc(Cl)cc3)c2=O)CN(C(C)=O)CC4)c1,,inactive: 18.8%
COc1ccc(CCNC(=O)c2ccc3c(c2)c(C)c(C)n3Cc2ccccc2)c(OC)c1OC,,inactive: 23.7%
